Measured values: patent US6660767B2, “Coumarin compounds as microtubule stabilizing agents and therapeutic uses thereof” (The Regents of the University of California, priority 2001, dated 2003)

System: HeLa cells
Assay: HeLa cell assay of mitotic spindle and chromosome organization (immunofluorescence)

## O=c1oc2ccccc2c(O)c1Cc1c(O)c2ccccc2oc1=O [dicoumarol]
About 20 hours, range of dicoumarol concentrations
  effect on mitosis: blocked mitosis at the transition form metaphase to anaphase
High concentrations of dicoumarol
  microtubule bundling or tubulin paracrystal formation: does not induce microtubule bundling or tubulin paracrystal formation
Low concentrations of dicoumarol
  organization of interphase cytoplasmic microtubules: did not produce discernible changes
